# From PMC10801813, “In silico protein interaction screening uncovers DONSON’s role in replication initiation” (Science (New York, N.Y.), 2023)
# These are yes or no findings as the source states them, for the method shown. In cells and extracts the contact can be indirect. Some results given as binding are weak or reduced against the parent protein; the word gives no strength. Tags and fused reporters may be left off the sequences shown.
# T1: FLAG-DONSON DEWE→RRAR, expressed in wheat germ extract (Xenopus laevis) (UniProt Q5U4U4)
# T1 sequence: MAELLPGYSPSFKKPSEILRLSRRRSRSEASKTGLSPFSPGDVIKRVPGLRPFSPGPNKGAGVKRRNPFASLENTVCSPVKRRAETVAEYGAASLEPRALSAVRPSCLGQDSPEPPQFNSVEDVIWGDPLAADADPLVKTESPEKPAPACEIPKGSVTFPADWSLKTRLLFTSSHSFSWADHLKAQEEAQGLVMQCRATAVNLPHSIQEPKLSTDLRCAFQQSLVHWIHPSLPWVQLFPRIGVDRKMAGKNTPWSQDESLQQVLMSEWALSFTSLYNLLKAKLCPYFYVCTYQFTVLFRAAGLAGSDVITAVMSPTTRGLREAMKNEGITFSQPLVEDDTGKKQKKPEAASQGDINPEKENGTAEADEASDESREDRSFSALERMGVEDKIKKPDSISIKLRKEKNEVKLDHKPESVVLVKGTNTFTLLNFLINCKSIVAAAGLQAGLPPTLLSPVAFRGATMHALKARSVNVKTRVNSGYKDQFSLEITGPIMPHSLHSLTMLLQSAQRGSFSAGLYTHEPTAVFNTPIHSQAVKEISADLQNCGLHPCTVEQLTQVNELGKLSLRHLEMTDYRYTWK
# T2: Recombinant FLAG-tagged DONSON, wild type (Xenopus laevis) (UniProt Q5U4U4)
# T2 sequence: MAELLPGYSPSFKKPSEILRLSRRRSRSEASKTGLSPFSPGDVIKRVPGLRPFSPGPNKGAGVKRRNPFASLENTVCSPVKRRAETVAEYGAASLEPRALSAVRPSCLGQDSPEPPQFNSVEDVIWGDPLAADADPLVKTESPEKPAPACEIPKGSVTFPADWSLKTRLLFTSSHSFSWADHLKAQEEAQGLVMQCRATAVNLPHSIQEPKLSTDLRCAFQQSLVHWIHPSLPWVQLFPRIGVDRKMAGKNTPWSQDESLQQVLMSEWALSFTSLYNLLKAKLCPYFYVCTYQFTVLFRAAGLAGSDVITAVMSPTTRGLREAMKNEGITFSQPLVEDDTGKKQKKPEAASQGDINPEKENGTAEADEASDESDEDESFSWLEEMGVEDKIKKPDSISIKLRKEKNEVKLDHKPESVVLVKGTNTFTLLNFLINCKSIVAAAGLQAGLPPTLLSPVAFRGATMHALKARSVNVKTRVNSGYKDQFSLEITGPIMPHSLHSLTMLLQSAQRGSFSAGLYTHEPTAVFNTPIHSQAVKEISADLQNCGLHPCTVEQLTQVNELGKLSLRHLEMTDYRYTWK
# T3: Recombinant FLAG-tagged DONSON Y8A (Xenopus laevis) (UniProt Q5U4U4)
# T3 sequence: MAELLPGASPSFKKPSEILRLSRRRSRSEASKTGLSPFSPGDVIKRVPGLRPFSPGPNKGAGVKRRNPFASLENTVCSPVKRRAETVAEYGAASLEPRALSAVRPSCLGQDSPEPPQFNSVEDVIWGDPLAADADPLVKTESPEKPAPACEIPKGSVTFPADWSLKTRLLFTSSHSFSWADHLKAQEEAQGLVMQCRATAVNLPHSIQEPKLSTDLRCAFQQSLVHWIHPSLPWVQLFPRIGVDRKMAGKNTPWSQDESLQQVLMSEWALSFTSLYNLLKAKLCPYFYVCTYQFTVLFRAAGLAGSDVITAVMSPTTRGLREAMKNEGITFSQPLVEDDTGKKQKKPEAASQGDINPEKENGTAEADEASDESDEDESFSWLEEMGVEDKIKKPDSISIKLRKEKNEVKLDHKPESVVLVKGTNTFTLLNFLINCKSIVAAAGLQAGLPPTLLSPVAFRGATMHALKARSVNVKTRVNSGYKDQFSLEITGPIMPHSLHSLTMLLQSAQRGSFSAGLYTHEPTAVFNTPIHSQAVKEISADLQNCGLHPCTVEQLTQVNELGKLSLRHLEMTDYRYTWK
# T4: Recombinant FLAG-tagged DONSON N430A (Xenopus laevis) (UniProt Q5U4U4)
# T4 sequence: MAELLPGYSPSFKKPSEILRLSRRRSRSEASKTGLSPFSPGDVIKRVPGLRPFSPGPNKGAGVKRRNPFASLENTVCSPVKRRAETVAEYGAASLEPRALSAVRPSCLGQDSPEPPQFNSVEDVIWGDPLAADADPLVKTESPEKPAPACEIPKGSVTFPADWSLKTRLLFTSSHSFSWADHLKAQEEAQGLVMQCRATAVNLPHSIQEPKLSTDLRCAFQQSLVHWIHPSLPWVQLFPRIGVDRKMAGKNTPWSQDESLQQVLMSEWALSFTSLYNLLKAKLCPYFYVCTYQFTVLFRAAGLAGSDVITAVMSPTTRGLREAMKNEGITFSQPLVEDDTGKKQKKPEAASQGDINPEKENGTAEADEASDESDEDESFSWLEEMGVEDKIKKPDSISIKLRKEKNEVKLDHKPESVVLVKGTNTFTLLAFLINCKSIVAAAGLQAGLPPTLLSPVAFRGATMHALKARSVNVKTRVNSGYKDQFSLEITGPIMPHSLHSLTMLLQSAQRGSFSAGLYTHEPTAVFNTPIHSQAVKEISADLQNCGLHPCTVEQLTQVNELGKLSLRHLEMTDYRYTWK
# T5: FLAG-DONSON, wild type, expressed in wheat germ extract (Xenopus laevis), Q5U4U4
# T5 chain: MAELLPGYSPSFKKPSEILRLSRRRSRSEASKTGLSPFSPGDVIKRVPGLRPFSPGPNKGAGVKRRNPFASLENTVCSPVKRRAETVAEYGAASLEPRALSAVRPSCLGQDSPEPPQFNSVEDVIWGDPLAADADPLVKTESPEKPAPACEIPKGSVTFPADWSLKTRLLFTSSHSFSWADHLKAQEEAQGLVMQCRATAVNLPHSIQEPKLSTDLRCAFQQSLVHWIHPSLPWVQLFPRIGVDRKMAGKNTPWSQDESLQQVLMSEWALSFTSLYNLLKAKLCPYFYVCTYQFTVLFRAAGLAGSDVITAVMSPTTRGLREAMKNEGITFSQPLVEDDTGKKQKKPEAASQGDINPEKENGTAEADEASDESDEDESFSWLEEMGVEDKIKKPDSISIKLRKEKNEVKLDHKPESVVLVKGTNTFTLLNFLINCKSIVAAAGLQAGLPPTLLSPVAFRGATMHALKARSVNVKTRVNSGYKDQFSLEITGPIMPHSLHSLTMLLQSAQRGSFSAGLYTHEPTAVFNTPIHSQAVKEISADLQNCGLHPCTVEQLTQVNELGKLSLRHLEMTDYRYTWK
# T6: Recombinant FLAG-tagged DONSON, wild type (Xenopus laevis), Q5U4U4
# T6 chain: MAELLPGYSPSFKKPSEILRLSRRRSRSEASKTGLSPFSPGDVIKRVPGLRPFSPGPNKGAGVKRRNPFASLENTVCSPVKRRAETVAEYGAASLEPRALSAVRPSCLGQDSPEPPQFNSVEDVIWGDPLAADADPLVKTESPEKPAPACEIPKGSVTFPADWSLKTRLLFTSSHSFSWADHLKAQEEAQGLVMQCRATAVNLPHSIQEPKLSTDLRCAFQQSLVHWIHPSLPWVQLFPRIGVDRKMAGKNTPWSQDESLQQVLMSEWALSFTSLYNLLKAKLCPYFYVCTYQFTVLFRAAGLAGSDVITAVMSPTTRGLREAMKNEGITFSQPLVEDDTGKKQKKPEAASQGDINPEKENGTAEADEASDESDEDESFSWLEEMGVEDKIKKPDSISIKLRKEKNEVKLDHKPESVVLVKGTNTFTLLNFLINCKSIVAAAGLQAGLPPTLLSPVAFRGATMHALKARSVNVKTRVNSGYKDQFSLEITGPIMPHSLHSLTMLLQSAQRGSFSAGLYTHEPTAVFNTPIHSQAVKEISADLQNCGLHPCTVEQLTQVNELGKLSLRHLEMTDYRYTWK
# Legend:
# [1] = molecular target: T1, FLAG-DONSON DEWE→RRAR, expressed in wheat germ extract (Xenopus laevis); test: co-IP; FLAG-DONSON proteins expressed in wheat germ extract pre-immobilised on anti-FLAG M2 magnetic beads, incubated with 30% NPE 1 h 4°C, eluted with 3× FLAG peptide, immunoblot (Fig. 4D, figs. S12 and S14)
# [2] = molecular target: T2, Recombinant FLAG-tagged DONSON, wild type (Xenopus laevis); test: co-IP; 1 μM purified recombinant FLAG-DONSON added to 30% non-replicating NPE (in IP wash buffer: 10 mM HEPES-KOH pH 7.7, 50 mM KCl, 2.5 mM MgCl2, 250 mM sucrose, 0.1 mg/mL BSA, 0.02% Tween 20), anti-FLAG M2 magnetic beads, 1 h 4°C, eluted with 3× FLAG peptide, immunoblot; in Fig. 3E NPE treated with buffer, p27^Kip (CDKi) or λ phosphatase; only the target purified
# [3] = molecular target: T3, Recombinant FLAG-tagged DONSON Y8A (Xenopus laevis); test: as above
# [4] = molecular target: T4, Recombinant FLAG-tagged DONSON N430A (Xenopus laevis); test: as above
# [5] = molecular target: T5, FLAG-DONSON, wild type, expressed in …; test: co-IP; FLAG-DONSON proteins expressed in wheat germ extract pre-immobilised on anti-FLAG M2 magnetic beads, incubated with 30% NPE 1 h 4°C, eluted with 3× FLAG peptide, immunoblot (Fig. 4D, figs. S12 and S14); settings: remark: other sources report otherwise
# [6] = molecular target: T6, Recombinant FLAG-tagged DONSON, wild …; test: co-IP; 1 μM purified recombinant FLAG-DONSON added to 30% non-replicating NPE (in IP wash buffer: 10 mM HEPES-KOH pH 7.7, 50 mM KCl, 2.5 mM MgCl2, 250 mM sucrose, 0.1 mg/mL BSA, 0.02% Tween 20), anti-FLAG M2 magnetic beads, 1 h 4°C, eluted with 3× FLAG peptide, immunoblot; in Fig. 3E NPE treated with buffer, p27^Kip (CDKi) or λ phosphatase; only the target purified; settings: remark: other sources report otherwise
binding [1],binding [2],binding [4],binding [5],Binder,binding [3],binding [6]
binds,binds,binds,,"Endogenous GINS of Xenopus nucleoplasmic egg extract (complex, UniProt Q7ZT47 1-196; Q7ZT46 1-185; Q7ZT01 1-210; Q7ZT48 1-221) chain 1: MFCEKAIELIRELQRASDGQLPAFNEDGIRQILEEMKALYEQNQADVNEAKTEGRSDLIPTIKFRHCCLLRNRRCIVAYLYDRLLRIRALRWEYGSVLPSALRFHMSTEEMDWFNQYKRSLATYMRSLGGEEGLDITQDMKPPKSLYIEVRCLRDYGEFEIDDGTTILLKKNSQHFLPRWKCEQLIRQGVLEHVLS chain 2: MDASEVEFLAEKEQVTVIPNFSLDKVYLIGGDLGPFNPSLPVEVPLWLAINLKQRQKCRIVPPEWMDVEKLEAIRDQERREETFTPMPSPYYMELTKLLLNHAADNIPKADEIRTLVKDTWDTRIAKLRLSADSFVKGQEAHAKLDNLTLMEINTIGTFFTESLNHMYKLRTSLQNPEEGQSQDY chain 3: MWEPYMPVEPGLGREENFLSLEDLLMSQEKLPCCIESGFPRLGFLDKGGDSDSIPEGSKMELPLWLAKGLYDNKRRVLSVELPKIYREGWRTVFSADANVVDLHKMGPHYYGFGSQLLNFDSPENPEIAKTILQTFVGRFRRIMDSSQNAYNEDTSGLVARLDELERSLFRAGQRGLNAFQSWERGKAAQITASNLVQNYKKRKFNEADA chain 4: MEDELALSDQGSDEDEEVLTPAELINKLEEAWLNEKFAPELLESKSEVVECVMEQLNHMEQNLHRAKPGDLKISFHHMEIERIRYMLSSYLRSRMLKIEKFFPHILEKEKSRGEGEPPHLSPEEFAFAKEYMTNTETLLKSVALRHMPPNLQTVDLLKSVPKPNLDSFVFLRVKEEQNNILVEPETDEQSEYAIDMEVGSQHLIRYRTIAPLVASGAVKLI",no binding (tested: 1 μM FLAG-DONSON in 30% NPE),
,,,no binding,"Endogenous MCM3 of Xenopus nucleoplasmic egg extract, P49739 1-807 (protein) MDYGGGFEDHELREAQREYLDFLDDDQDQGLYHGKVRDMIGSNEHRLIVNLNDVRRKNDKRANLMLNDAFAETIAFQRALKDLVASIDATYAKQFEEFSVGFEGSFGSKHVSPRTLTASLLGSLVCVEGIVTKCSLVRPKVMRSVHYCPATKKTLERKYSDLTSLEAFPSSSIYPTKDEENNPLETEYGLSTYKDHQTLSIQEMPEKAPAGQLPRSVDIIADDDLVDKCKPGDRVQIVGIYRCLPSKQGGFTSGTFRTILLANNIKLMSKEIAPTFSADDVAKIKKFCKAHSKDIFEHLSKSLAPSIHGHEYIKKAILCMLLGGNEKVLENGTRIRGDINVLLIGDPSVAKSQLLRYVLHTAPRAIPTTGRGSSGVGLTAAVTTDQETGERRLEAGAMVLADRGVVCIDEFDKMSDMDRTAIHEVMEQGRVTIAKAGIQARLNARCSVLAAANPVYGRYDQYRTPMENIGLQDSLLSRFDLLFIVLDKMDADNDQEIADHVLRMHRYRTPGEQDGYALPLGCSVEIFATDDPNASDVTDQELQIYEKHDNLLHGPRKNKSKIVSMQFIRKYIHVAKLIKPVLTSEAADYISQEYAKIRNHDQINNDSARTMPVTARALETMIRLSTAHAKVRMSKTIERQDAETALELVQFAYFKKVLAKEKKKTDKDLHDENLSQDTLSQESVRKSSRRAGKIADSQDDSMDPYSFSEQDSSLNENLSQSLRPQRKKAESQDGKRSLSQNRTKEFKAALLKAFKSSRSQSVAVSQLLELINKGNPEPFERSEVKEALDNMQNDNQVMVSEDVVFLI",,no binding (tested: 1 μM FLAG-DONSON in 30% NPE)
